Laboratory results from PubChem BioAssay AID485344 (National Center for Advancing Translational Sciences (NCATS), 2010).
Out of some 340,000 compounds screened, about 6,900 (2%) were called active. No stated cut-off is given here; in the data, active means inhibition above about 30%; inactive means below that, where a call was filed. The entries are a selection whose mix differs from that of the whole data set. Where no call is shown, the source filed none.

The molecules below were run against D(2) dopamine receptor (Homo sapiens) (UniProt P14416) (assay: HTS Assay for Allosteric Antagonists of the Human D2 Dopamine Receptor: Primary Screen for Antagonists). Conditions: HEK293 TREx D2 cells, calcium flux, dopamine EC80; at 10 µM; stronger effect = higher value.
Procedure, shortened: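 Calcium mobilization kinetics were recorded at 1 s intervals in tetracycline-induced HEK293 T-REx D2 cells, first for 180 s after compound addition and then 180 s after EC80 dopamine.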
Further: 0% is about no effect.

Chain of UniProt P14416 (P14416 whole entry, looked up): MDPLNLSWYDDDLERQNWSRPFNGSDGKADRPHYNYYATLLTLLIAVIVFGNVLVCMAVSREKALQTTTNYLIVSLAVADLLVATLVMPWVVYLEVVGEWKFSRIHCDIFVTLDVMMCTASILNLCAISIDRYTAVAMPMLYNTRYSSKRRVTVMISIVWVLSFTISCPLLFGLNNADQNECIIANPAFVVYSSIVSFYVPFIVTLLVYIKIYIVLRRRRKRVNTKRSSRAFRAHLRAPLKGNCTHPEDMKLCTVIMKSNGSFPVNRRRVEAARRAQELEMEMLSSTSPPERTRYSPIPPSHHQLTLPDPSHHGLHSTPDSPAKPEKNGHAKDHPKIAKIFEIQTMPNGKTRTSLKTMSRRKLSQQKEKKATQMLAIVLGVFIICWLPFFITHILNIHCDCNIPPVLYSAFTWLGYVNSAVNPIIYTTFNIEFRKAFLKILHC

| SMILES | inhibition |
| --- | --- |
| COc1cccc(NC(=O)c2ccc3[nH]c(C)cc(=O)c3c2)c1 | 3.49% |
| Cc1nn(-c2ccccc2)c2c1N(CCCC(=O)NCc1ccccc1)C(=O)CS2 | -0.422% |
| O=C(NCCCN1CCN(c2ccccc2)CC1)Nc1ccccc1C(F)(F)F | active: 74.6% |
| O=C1CN(C(=O)Nc2ccccc2Cl)C(c2ccccc2)c2c(sc3c2CCCC3)N1 (configuration not stated) | 14.9% |
| COc1ccc(-c2cc(C(=O)NCCc3ccc(OC)c(OC)c3)c3ccccc3n2)cc1 | 10% |
| COc1ccc(NC(=O)C(C)Sc2cc(-c3ccccc3)nc(C)n2)cc1Cl (configuration not stated) | -14.8% |
| CCc1cc2c(cc3c(=O)n(CC(=O)NC4CCCCC4)ncn32)s1 | -4.55% |
| Cc1ccc(OCC(=O)Nc2ccc3[nH]c(=O)sc3c2)cc1 | -23.5% |
| CCOc1ccc(N(C(C)C(=O)NCCSc2ccc(C)cc2)S(C)(=O)=O)cc1 (configuration not stated) | 2.31% |
| COc1cccc(C(c2sc3nc(-c4ccco4)nn3c2O)N2CCN(c3ccccc3F)CC2)c1 (configuration not stated) | 11.9% |
| Cc1cc(C)cc(NC(=O)C(=O)NCC(c2cccnc2)N2CCN(c3ccccc3)CC2)c1 (configuration not stated) | 18.2% |
| CCCCn1cc(S(=O)(=O)c2ccc(CC)cc2)c(=O)c2cc(F)c(N3CCOCC3)cc21 | -4.94% |
| c1csc(C(c2nnnn2C2CCCC2)N2CCCC3(CCCCC3)C2)c1 (configuration not stated) | active: 30.8% |
| COc1ccc(-c2ccc(CCC(=O)O)n2CC(=O)Nc2cccc(Cl)c2C)cc1 | -19.8% |
| Cc1c(C(=O)N(Cc2ccc(N(C)C)cc2)Cc2ccco2)oc2cc(Br)ccc12 | -6.62% |
| Cn1cc(C(=O)NCCc2ccccc2)c(=O)c2cc(S(=O)(=O)N3CCCCCC3)ccc21 | -3.18% |
| O=C(CN1C(=O)CC(c2ccco2)Sc2ccccc21)Nc1ccc(Br)cc1 (configuration not stated) | 7.5% |
| COc1ccccc1-c1noc(-c2ccc(NCc3cccnc3)c([N+](=O)[O-])c2)n1 | 12.5% |
| CCCSc1nnc2c(n1)OC(c1ccc(OCC(=O)O)cc1)Nc1ccccc1-2 (configuration not stated) | 8.22% |
| CCCNC(=O)C1CCN(Cc2cc3ccccc3n2Cc2ccccc2)CC1 | 20.1% |
| CC1(C)CC(=O)c2cc(-c3nc(-c4ccc(Cl)cc4)cs3)c(=O)n(-c3cccc(F)c3)c2C1 | -16.1% |

| SMILES | inhibition |
| --- | --- |
| CN(C)C=NC(=O)c1cc(C(=O)c2ccccc2)c[nH]1 | active: 33.2% |
| COc1cc(C)ccc1OCCSc1nc2ccc(NC(=O)c3ccc(C)cc3)cc2s1 | -5.33% |
| Cc1oc2ncnc(N3CCOCC3)c2c1C(=O)NCc1ccc(Cl)cc1 | -1.64% |
| N#C/C(=C\c1ccc(-c2cccc(Cl)c2)o1)C(=O)Nc1cccc(C(F)(F)F)c1 | 6.68% |
| Fc1ccc(N2CCN(c3ncnc4[nH]ncc34)CC2)cc1 | -4.54% |
| CC(C)OCCCNC(=O)CN1C(=O)c2ccccc2Sc2ncccc21 | 6.08% |
| Cc1ccccc1N=Cc1cc2c(cc1O)OC(N)=C(C#N)C2c1ccccc1 (configuration not stated) | active: 33.1% |
| O=C(Nc1cccc2c1CCCC2)N1CCOc2ccc(Cl)cc21 | 13.3% |
| CCCC(=O)Nc1ccc2nc(SCC(=O)N3CCOCC3)sc2c1 | 15.8% |
| CCN1CCN(C(c2ccc(F)cc2)c2sc3nc(-c4ccco4)nn3c2O)CC1 (configuration not stated) | 14.9% |
| Cc1ccc(S(=O)(=O)N(CC(=O)NCCSc2ccc(Cl)cc2)c2cccc(Cl)c2)cc1 | 0.95% |
| Cc1ccc(S(=O)(=O)CCC(=O)N2CCN(c3nc4c(C)c(C)ccc4s3)CC2)cc1 | -6.05% |
| COc1ccc(N2CCN(C(c3ccc(F)cc3)c3sc4nc(-c5ccco5)nn4c3O)CC2)cc1 (configuration not stated) | -6.56% |
| Cc1ccc(OCC(=O)Nc2nonc2-c2ccc(Br)cc2)cc1 | 14% |
| CCC(C)NC(=O)c1cnn(-c2cccc(F)c2)c1-n1cccc1 (configuration not stated) | 2.51% |
| CC(=O)N1CCCC1c1nc2ccccc2n1Cc1ccccc1F (configuration not stated) | -3.41% |
| Cc1cccc(C(C)C)c1NC(=O)c1ccc2c(c1)CCCN2S(C)(=O)=O | -1.06% |
| CCCn1cc(S(=O)(=O)c2cccc(Cl)c2)c(=O)c2cc(F)c(N3CCCC3)cc21 | 5.05% |
| O=[N+]([O-])c1cccc(OCCN2CCC(Cc3ccccc3)CC2)c1 | active: 67.4% |
| Cc1cc(Cl)ccc1OCC(=O)N(Cc1ccc(N(C)C)cc1)C1CCS(=O)(=O)C1 (configuration not stated) | -11.6% |
| CCOC(=O)c1cc(-c2ccc(C)cc2)n(CC(=O)Nc2ccc(OC)cc2OC)c1C | 12.1% |

| SMILES | inhibition |
| --- | --- |
| Cc1ccc(NC(=O)CSc2nccn2C2CCCC2)cc1Cl | -12.7% |
| COc1cc(C(=O)Nc2ccc(Cl)c([N+](=O)[O-])c2)cc(OC)c1OC | active: 36.7% |
| CCc1nnc2c(Nc3ccccc3Br)nc3ccccc3n12 | -8.72% |
| Cc1nn(CCC(=O)Nc2ccccc2Br)c(=O)c2nn(-c3ccccc3)c(C)c12 | -14.7% |
| Cc1cccc(CCNC(=O)CCS(=O)(=O)c2cc3c(cc2C)NC(=O)CO3)c1 | 12.4% |
| CCOC(=O)N1CCC2(CC1)OC(=O)C(C)=C2C(=O)NCc1ccccc1OC | -7.72% |
| Cn1cnc(S(=O)(=O)N2CCC(C(=O)Nc3ccc(Cl)c(C(F)(F)F)c3)CC2)c1 | -8.67% |
| CCc1cccc(NS(=O)(=O)c2ccc3c(c2)N(CC(=O)OC)C(=O)CS3)c1 | -8.22% |
| COc1ccccc1N1CCN(C(=O)CNS(=O)(=O)c2ccc(Br)s2)CC1 | 7.41% |
| COC(=O)c1cc(C)nc2c1c(=O)nc(SCc1ccccc1Cl)n2C1CC1 | 7.27% |
| Cc1ccc(OCC(=O)Nc2ccc3nn(-c4ccc(C)cc4)nc3c2)cc1 | -0.0186% |
| O=C1NCCN1c1ncc([N+](=O)[O-])s1 | active: 54% |
| CN1CCc2c(sc3c2C(=O)NC(c2ccc4c(c2)OCO4)N3)C1 (configuration not stated) | active: 32.2% |
| COc1ccc(C(=O)NNC(=O)COc2ccc(Cl)cc2C)cc1S(=O)(=O)N1CCOCC1 | active: 32.6% |
| CC(C)N(Cc1nc(-c2ccc(Cl)cc2)no1)C(=O)c1ccco1 | 10.5% |
| CCN1CCCC1CNC(=O)c1cc(NC(C)=O)c(N(C)C)cc1OC (configuration not stated) | active: 69.3% |
| COc1ccc(-n2ccn(CC(=O)Nc3ccc(C)cc3C)c(=O)c2=O)cc1 | 8.84% |
| COc1ccc(CNC(=O)c2sc3nc4n(c(=O)c3c2C)CCC4)cc1 | -23.8% |
| CSCCC(NS(=O)(=O)c1ccccc1F)C(=O)N1CCCCCC1 (configuration not stated) | active: 43.6% |
| CCCc1nnc(NC(=O)C(CC)Sc2nnc3c4ccccc4n(C)c3n2)s1 (configuration not stated) | 0.516% |
